From the BET-seq Pho4 binding data (Le et al. 2018)
Some of the results follow. The energies were worked out here from pooled read counts, against the library average; single values are noisy.

These sequences were tested against T1, Pho4 (S. cerevisiae) (UniProt P07270) (assay: relative binding free energy (BET-seq); higher = weaker binding). Settings: reference: library average.
T1 sequence: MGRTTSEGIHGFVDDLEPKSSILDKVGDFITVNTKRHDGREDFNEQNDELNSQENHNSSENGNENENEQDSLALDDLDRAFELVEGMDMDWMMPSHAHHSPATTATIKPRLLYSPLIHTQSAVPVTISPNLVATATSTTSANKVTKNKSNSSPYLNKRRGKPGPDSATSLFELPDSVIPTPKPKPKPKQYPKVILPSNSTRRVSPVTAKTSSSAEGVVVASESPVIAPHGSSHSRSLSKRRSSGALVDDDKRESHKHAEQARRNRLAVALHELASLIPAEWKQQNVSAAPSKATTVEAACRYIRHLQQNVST

Sequence	relative binding free energy [kcal/mol]
ATGAGCACGTGTGAGA	-0.11
GAATGCACGTGAATGG	0.16
GGGTCCACGTGTTAGG	0.05
GTATGCACGTGAGGTT	0.27
GTGGTCACGTGGAAAA	0.35
AAGGGCACGTGTGGCG	-0.12
GCTTGCACGTGGTTAT	0.01
AGAAGCACGTGCTGGG	-0.16
TATATCACGTGTGGCC	0.49
GTGCTCACGTGAGGTG	0.32
TTGCTCACGTGATTTG	0.28
TTTATCACGTGGTAAA	0.23
GGGAGCACGTGTGGCA	-0.19
GTGTACACGTGTATGA	0.18
TCTGGCACGTGTAGGA	-0.14
TGTCGCACGTGCAAGG	-0.04
CAGTGCACGTGGAGAT	0.02
AGTGTCACGTGTGCGC	0.08
GCTTGCACGTGGGTGC	-0.12
GGGTACACGTGACGTA	0.35
AGTGACACGTGGTGTC	-0.12
GCGTTCACGTGGTTGG	0.3
GGTATCACGTGTAGTA	0.12

Sequence	relative binding free energy [kcal/mol]
GAAGGCACGTGGTAGC	-0.06
GTTGACACGTGGCGTT	-0.1
GGTGTCACGTGCTAAG	0.09
ATGCGCACGTGTTGCG	-0.03
GATGGCACGTGTAGAG	0.04
TAGTTCACGTGAGATG	0.5
GGCTGCACGTGGAAGG	-0.03
AGGGCCACGTGTGGGA	-0.01
GTTTTCACGTGTTCAT	0.27
TCAATCACGTGGTTAT	0.27
AGGGACACGTGGTGGC	-0.07
GTCATCACGTGGGGAT	0.02
ACCTGCACGTGGGGGT	-0.24
GTTTTCACGTGTCGTG	0.16
AGCGGCACGTGAAGGA	0.24
ATCTTCACGTGCGGGG	0.16
GCAGACACGTGGGTGG	-0.08
CGGGGCACGTGAATGT	0.21
GGAGACACGTGTGGCA	0.19
TGTGGCACGTGCCGAT	-0.12
TTGTTCACGTGGAGGG	0.28
TACTTCACGTGGGGTG	0.14
CGGGTCACGTGGCGGC	0.03

Sequence	relative binding free energy [kcal/mol]
GGACTCACGTGGGTGG	0.1
GGGCGCACGTGTAGGG	-0.05
TGGTGCACGTGTGCCT	-0.09
AGGGGCACGTGAATAG	0.21
TTCTGCACGTGGCTGT	-0.18
TCGGGCACGTGAGATG	0.03
TTACACACGTGTTTTT	-0.03
CAAGGCACGTGGAGGC	-0.02
CGGTTCACGTGTGTCG	0.37
TCGATCACGTGGGCTT	0.09
TGGAGCACGTGTGAAA	0.13
ATGAGCACGTGGGGTA	-0.26
TCATTCACGTGTGAGT	0.35
TGTTGCACGTGGTCGA	-0.18
CTGAGCACGTGATGGG	0
TATGTCACGTGACTGG	0.08
CGTGTCACGTGTCGGT	0.15
TCTGGCACGTGTTGCT	-0.14
TAGGTCACGTGTATAG	0.07
GCGGTCACGTGGAGAT	0.19
CATGTCACGTGTAGTG	0.18
AGGTTCACGTGCTTAT	0.18
GATATCACGTGTTATA	0.2

Sequence	relative binding free energy [kcal/mol]
GGTGACACGTGGGGGA	-0.12
TTGCACACGTGCTTGT	-0.04
GGCGGCACGTGTAGCG	0.02
ATATGCACGTGATTTG	0.07
AGGATCACGTGGTGTA	0.04
TGGTGCACGTGATTCT	0.17
TTTTCCACGTGGGGAT	0.06
GTATGCACGTGTAGTC	0.14
TAGTTCACGTGTAGAA	0.14
CGGGTCACGTGAATGT	0.22
TGTTGCACGTGCGGAA	0
AAGGGCACGTGAAGAG	0.21
GGGCGCACGTGAGGAG	0.1
TGAGGCACGTGTTGAA	-0.09
TATCTCACGTGGGGTC	0.09
GAGTACACGTGTTGGC	0.07
TAGATCACGTGTGATG	0.15
GGTATCACGTGGGCCG	0.08
GACTGCACGTGTTTGG	-0.1
AGGGTCACGTGAGGTA	0.34
GGGTTCACGTGCTGGT	0.4
ATTGACACGTGTGGTC	0.07
AGCTGCACGTGTCGGT	-0.05

Sequence	relative binding free energy [kcal/mol]
GTGGTCACGTGCGCAT	0.08
AACTGCACGTGAGGGT	0.19
TGCTGCACGTGGTTGC	-0.04
CGGGTCACGTGAATGA	0.39
TCGGTCACGTGATTAG	0.16
AAGAGCACGTGTTTGG	-0.06
TGGTTCACGTGCATAT	0.22
TTGGGCACGTGGAGTC	0.06
GTAGGCACGTGTCATG	-0.11
CGGGGCACGTGGCGCG	-0.25
GGGAACACGTGGGAAT	0.04
TGTAACACGTGGCAGT	0.01
GTTGTCACGTGGATGT	0.17
TTTATCACGTGATGAA	0.18
CTTGGCACGTGTAAGT	0.05
CAGTTCACGTGTTAGT	0.28
GAAGGCACGTGGATAT	-0.05
GGGGTCACGTGGAGTC	0.24
AAGGTCACGTGTGATG	0.21
GTTCTCACGTGGTAGT	0.22
GTTAGCACGTGCAGGG	-0.08
GTTTTCACGTGTTTTG	0.33
GTTGGCACGTGGCAGG	-0.11
